Reference: PubChem BioAssay (NCATS)
The shares of active, inactive and inconclusive entries below differ from those in the screen. Potencies of inconclusive entries are left out as doubtful fits. Activity calls are given as the source filed them. Calls follow the shape of the dose curve; as a rule, active = well fitted inhibition curve with a large enough effect; inconclusive = small, poorly fitted or top-dose-only effect; inactive = no such curve, though single readings can be large or run the other way.
Potency is read from the fitted curve at half-maximal effect; tags tell the direction and shape of the fitted curve.

The compounds below were run against Rap guanine nucleotide exchange factor 3 (Homo sapiens) (UniProt O95398) (assay: Confirmatory qHTS for antagonist of cAMP-regulated guanine nucleotide exchange factor 3 (EPAC1) (AID 1645880; also: nearly all actives have a fitted effect of over 55% in size)). Details: EPAC1 Rap1B-BODIPY-GDP exchange, fluorescence; activity, negative = inhibition: at 115 µM (top of the series).
UniProt O95398, sequence (O95398 whole entry, looked up): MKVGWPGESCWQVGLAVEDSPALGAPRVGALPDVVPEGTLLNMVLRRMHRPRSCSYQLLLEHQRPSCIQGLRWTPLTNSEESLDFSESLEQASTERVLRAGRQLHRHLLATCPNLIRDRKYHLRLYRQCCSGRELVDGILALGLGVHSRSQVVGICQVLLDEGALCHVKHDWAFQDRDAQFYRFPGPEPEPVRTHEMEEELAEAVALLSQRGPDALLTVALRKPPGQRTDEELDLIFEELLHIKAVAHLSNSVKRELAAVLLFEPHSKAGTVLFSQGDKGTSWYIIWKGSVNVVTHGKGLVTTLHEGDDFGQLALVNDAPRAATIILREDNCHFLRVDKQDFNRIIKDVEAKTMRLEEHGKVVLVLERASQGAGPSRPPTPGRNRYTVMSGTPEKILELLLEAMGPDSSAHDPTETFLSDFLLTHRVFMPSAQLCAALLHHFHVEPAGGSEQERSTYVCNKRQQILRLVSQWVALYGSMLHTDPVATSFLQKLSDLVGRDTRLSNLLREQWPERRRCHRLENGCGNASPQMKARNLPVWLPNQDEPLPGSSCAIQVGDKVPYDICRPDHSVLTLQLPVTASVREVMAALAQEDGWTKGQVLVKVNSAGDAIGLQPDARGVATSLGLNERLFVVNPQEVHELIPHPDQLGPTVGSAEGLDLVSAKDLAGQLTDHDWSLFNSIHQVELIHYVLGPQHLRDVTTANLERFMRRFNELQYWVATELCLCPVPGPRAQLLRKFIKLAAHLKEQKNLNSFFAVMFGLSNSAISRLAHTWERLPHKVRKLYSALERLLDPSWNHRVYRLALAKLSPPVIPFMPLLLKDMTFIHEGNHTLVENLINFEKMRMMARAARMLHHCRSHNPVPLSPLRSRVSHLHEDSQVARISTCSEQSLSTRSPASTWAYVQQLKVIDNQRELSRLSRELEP
Summary of the method: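 Nucleotide exchange uses 100 nM EPAC1, 250 nM RAP1B-BODIPY-GDP and 50 uM GDP, with compounds in a concentration-titration series. After 5 min at room temperature, fluorescence (480 nm ex/540 nm em) is read every 5 min for 30 min. Data are normalized to control ATA and DMSO.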
In the case of `COc1ccc(/C=C2\Sc3ccc(C(=O)N4CCN(Cc5ccccc5)CC4)cc3N(C)C2=O)cc1OC`, the Potency is reported as inconclusive [inhibitor, partial curve, poor fit].
In the case of `Cc1ccc(S(=O)(=O)N2[C@@H](c3ccc(C(C)(C)C)cc3)C(C(=O)O)=CC[C@H]2c2cccs2)cc1`, the Potency is reported as inconclusive [inhibitor, partial curve].
In the case of `Cc1nn(-c2ccc(F)cc2)c(-n2cccc2)c1C(=O)N1CCN(c2ccc(F)cc2)CC1`, the Potency is reported as inconclusive [inhibitor, single point].
In the case of `COc1cc(O)c(C(CC(=O)N2CCCC(C)C2)c2ccc3c(c2)OCO3)c(OC)c1` (stereo not given), the Potency is reported as inconclusive [inhibitor, partial curve].
`O=C(COC(=O)[C@@H]1CC(O)CN1S(=O)(=O)c1ccc(Cl)c(Cl)c1)NC(=O)NCc1ccccc1` (stereo not given in full) was tested, and the Potency was inconclusive [inhibitor, partial curve, poor fit].
In the case of `C[C@@H]1ON(C)[C@H]2C[C@H]3c4[nH]c5ccc(-c6ccc7c(c6)OCO7)cc5c4CCN3C(=O)[C@@H]12`, the Potency is reported as inconclusive [inhibitor, partial curve].
With `CCOC(=O)c1sc2nc(-c3ccco3)c3c(c2c1N)CC(C)(C)OC3` the Potency was active: 44.7 µM.
With `CCOC(=O)C1Oc2ccccc2C(c2ccc(C)cc2)=C1C(=O)OC` (stereo not given) the “activity, negative = inhibition” value was inactive: -32.2%.
For `CCC(=O)N1N=C(c2cccs2)CC1c1ccc(C)cc1` (stereo not given), the Potency was inconclusive [inhibitor, partial curve, poor fit].
In the case of `CCc1ccc(NS(=O)(=O)c2cc3c4c(c2)CCN4C(=O)CC3)cc1`, the Potency is reported as inconclusive [inhibitor, partial curve, poor fit].
For `COc1ccc(C(=O)c2nccc3ccccc23)cc1`, the Potency was inconclusive [inhibitor, partial curve, poor fit].
`CC(=O)c1ccc(N2CCN(C(=O)C3CCCN(S(=O)(=O)c4c(C)[nH]c(=O)[nH]c4=O)C3)CC2)cc1` (stereo not given) was tested, and the “activity, negative = inhibition” value was inactive: -17.1%.
With `CCOC(=O)C1=C(CC)OC(N)=C(C#N)C1c1ccc(F)cc1F` (stereo not given) the Potency was inconclusive [inhibitor, partial curve, poor fit].
`COc1ccc(SC[C@H](C)CN2CC[C@H](C)CCC2=O)cc1` was tested, and the “activity, negative = inhibition” value was inactive: -11.9%.
In the case of `COc1ccc2cc(S(=O)(=O)N3CCCC3)ccc2c1`, the “activity, negative = inhibition” value is reported as inactive: -17.6%.
`CC(=O)Nc1cc(C(=O)NCc2ccco2)ccc1Sc1ccc(C)cc1` was tested, and the “activity, negative = inhibition” value was inactive: -11.8%.
For `Cc1ccc(NC(=O)CSc2ncn[nH]2)cc1C`, the “activity, negative = inhibition” value was inactive: -5.91%.
For `CC1(Cc2ccccc2Cl)C(=O)Nc2ccc(OC(F)(F)F)cc21` (stereo not given), the Potency was inconclusive [inhibitor, partial curve].
`CCC(C(=O)c1ccc2ncccc2c1)c1ccccc1` (stereo not given) was tested, and the Potency was inconclusive [inhibitor, partial curve, poor fit].
With `Cc1cc(Cl)ccc1OC(C)C(=O)Nc1ccc(C(=O)Nc2ccccc2C(=O)O)cc1` (stereo not given) the Potency was inconclusive [inhibitor, full curve].
`CCN(CC(=O)Nc1ccc(OC)cc1)C(=O)Cc1cccs1` was tested, and the Potency was active: 67.5 µM.
For `COc1cc(NS(=O)(=O)c2cc3[nH]c(=O)c(=O)[nH]c3cc2C)cc(OC)c1OC`, the “activity, negative = inhibition” value was inactive: -19.4%.
With `CN(CC(=O)Nc1cccc(F)c1)C(=O)c1cccc(-n2cccc2)c1` the Potency was inconclusive [inhibitor, partial curve, poor fit].
For `CCOC(=O)N1CCN(S(=O)(=O)c2cc(-c3nn4c(C)nnc4c4ccccc34)ccc2C)CC1`, the “activity, negative = inhibition” value was inactive: -10.8%.
For `CCCC(=O)Oc1c(S(=O)(=O)c2ccc(C)cc2)c(C)nn1C(C)(C)C`, the Potency was inconclusive [inhibitor, full curve, poor fit].
In the case of `Cc1cc(C)c(C(=O)c2cccs2)c(C)c1`, the “activity, negative = inhibition” value is reported as inactive: -12.5%.
For `CC1(C(=O)NS(=O)(=O)c2ccc3ccccc3c2)CCN1C(=O)C1(c2ccc(Cl)cc2)CCC1` (stereo not given), the Potency was active: 37.9 µM.
`COC(=O)c1ccc2nc(-c3ccco3)c(Cc3cccc(F)c3)n2c1` was tested, and the Potency was inconclusive [inhibitor, partial curve].
For `CSCCC(NC(=O)c1ccc(Cl)cc1)C(=O)OCC(=O)NCc1ccco1` (stereo not given), the “activity, negative = inhibition” value was inactive: -13.3%.
`CC1(C(=O)NS(=O)(=O)c2ccc(Cl)cc2)CCN1C(=O)C1(c2ccccc2)CCCC1` (stereo not given) was tested, and the Potency was inconclusive [inhibitor, partial curve].
`Nc1nc(CSc2nnnn2-c2ccc(Cl)cc2)nc(N2CCOCC2)n1` was tested, and the “activity, negative = inhibition” value was inactive: -9.61%.
With `COc1ccc(S(=O)(=O)NC(=O)C2(C)CCN2C(=O)C2(c3ccccc3)CCCC2)cc1` (stereo not given) the Potency was inconclusive [inhibitor, partial curve].
In the case of `COc1cc(NC(=O)CCc2c(C)nc3c4c(C)cc(C)nc4nn3c2C)cc(OC)c1`, the “activity, negative = inhibition” value is reported as inactive: -6.83%.
In the case of `COc1ccc(N2CCN(C(=O)CCc3ccccc3OC)CC2)cc1`, the “activity, negative = inhibition” value is reported as inactive: -8.5%.
`O=C(NC1CCC(O)CC1)c1ccc(S(=O)(=O)NCc2ccco2)cc1` (stereo not given) was tested, and the “activity, negative = inhibition” value was inactive: -10.2%.
For `CCc1nnc(NS(=O)(=O)c2ccc(Nc3ccc([N+](=O)[O-])c4nonc34)cc2)s1`, the Potency was active: 42.6 µM.
In the case of `Clc1ccc(CON/C=N/c2ncnc3sccc23)cc1`, the Potency is reported as inconclusive [inhibitor, partial curve, poor fit].
For `C=CC[C@@H](CC(=O)NCCO)C(=O)N[C@@H](C)COC(=O)[C@H](CC=C)CC(=O)OC(C)(C)C`, the “activity, negative = inhibition” value was inactive: -8.36%.
With `CCCn1c(=O)n(C)c(=O)c2c(SCC(=O)NCc3ccco3)nc(C3CC3)nc21` the “activity, negative = inhibition” value was inactive: -28.4%.
With `CC(Sc1ccccc1)C(=O)NNC(=O)c1csc(N2CCOCC2)n1` (stereo not given) the “activity, negative = inhibition” value was inactive: -14%.
